From publication PMC10668032
The other results are listed elsewhere or left out. At the low end of the ranking the order means little.

Biological target: SIX1-Q177R homeodomain (UniProt Q15475)
Test: universal protein binding microarray
Conditions: Universal all-10-mer PBM (8x60K, AMADID 030236), 300 nM GST-tagged protein, Alexa Fluor 488 anti-GST; buffer, salt, pH and temperature not stated; high values mean tight binding; most listed sequences are background and not binding sites; double strand, one strand shown

Row | Sequence | binding signal [E-score]
1 | TCAAATAA | -0.155
2 | GTCAAGAA | -0.0991
3 | GCGACAAA | -0.119
4 | CGTGTCGA | 0.404
5 | CGACATTC | 0.00988
6 | CGTCCTCC | 0.0102
7 | ACATTCTA | -0.174
8 | AGGACGTA | -0.0746
9 | CTTAAATA | -0.116
10 | CGTCGGGC | 0.0238
11 | CCAGTGAC | 0.0252
12 | TGAGAGAA | -0.309
13 | AAGGCCTC | -0.185
14 | AATATATA | 0.0933
15 | ACAGTTGG | -0.108
16 | GTTCATCA | -0.091
17 | CCGTTTGA | -0.0414
18 | AAGGTGCC | -0.0584
19 | CTTGCCAA | -0.0256
20 | CGCGAGAA | -0.0524
21 | CAAGGAAG | -0.0601
22 | ACCACTCA | 0.117
23 | GCTTGCTA | -0.2
24 | TAAGGGGA | 0.0595
25 | AGAGTCGG | 0.104

Row | Sequence | binding signal [E-score]
26 | GACGAGAC | -0.0908
27 | ACAGCCAG | 0.0248
28 | ATTAAACG | -0.133
29 | CGCTGCTC | -0.0178
30 | AACCATCG | -0.0548
31 | ACCGTCAT | -0.00641
32 | GAATAGTC | -0.154
33 | AAGACGAC | 0.0972
34 | TGCCCTAA | -0.0768
35 | CGCTAGCC | -0.261
36 | CGCACACC | 0.395
37 | AAAGAAAA | -0.0465
38 | CCCTGTGC | 0.104
39 | CGATTTTA | -0.236
40 | CCGTGTAC | 0.438
41 | CTCTTGTA | -0.0983
42 | CCTCAGAG | 0.0207
43 | GCGGTTCA | -0.0469
44 | CGGTCGAC | 0.151
45 | CCACTCAC | -0.00402
46 | GAGCATGA | -0.204
47 | GATTCCCC | 0.0504
48 | AGGTGCTG | 0.142
49 | ATTACACA | 0.291
50 | CCAATGCG | -0.091

Row | Sequence | binding signal [E-score]
51 | CTATCCAC | 0.101
52 | CGAGAGTA | -0.00616
53 | GGGATAGA | -0.0382
54 | AAGTTTCA | -0.121
55 | AGATTTAG | -0.00392
56 | AAAAGTGT | 0.274
57 | CGGTGTGC | 0.381
58 | AATTTCAT | -0.253
59 | TCCTTGCA | -0.182
60 | GATAGAAA | -0.0956
61 | GAGGCGGC | -0.115
62 | TGGACACA | 0.252
63 | GCGTGACC | -0.071
64 | GGTCATAA | -0.121
65 | ATACATCA | -0.0716
66 | AAACGCTG | -0.17
67 | ATCTAACG | -0.238
68 | CCCAGCAG | -0.15
69 | ACACCTGC | 0.458
70 | CGACCCTA | 0.0377
71 | AATCATGT | 0.0658
72 | AGCTATAC | 0.0159
73 | ATACGTTG | -0.114
74 | AGGCCCCT | -0.122
75 | ACACTGCG | 0.383

Row | Sequence | binding signal [E-score]
76 | CTGGGAAC | 0.0295
77 | GGGTCGAC | 0.0998
78 | CACGGCTC | 0.154
79 | CTTATAGA | -0.0518
80 | ATATCCAT | -0.216
81 | CAGGAACG | -0.171
82 | CATCAGGA | -0.194
83 | ACCAGCAT | 0.0555
84 | AACTCAAG | -0.205
85 | ACTAGGCG | 0.0177
86 | CACGGGAA | 0.135
87 | CGCTGTGA | -0.0995
88 | CTGCATCC | -0.276
89 | AACTCTGT | -0.0165
90 | TCCCCAGA | -0.0439
91 | ATTAGATA | -0.011
92 | CTAATCCA | -0.0301
93 | GGTCACGA | -0.0316
94 | CACCAAAA | 0.217
95 | CTGGTGGA | -0.0855
96 | ACTTTTGC | -0.146
97 | ATGACAAT | -0.254
98 | CAACCAGC | -0.0553
99 | TACGCTCA | -0.0696
100 | CCGTCACA | 0.0847

Row | Sequence | binding signal [E-score]
101 | CTCGCAGC | -0.277
102 | ATCGTTCC | -0.162
103 | CAGAGCTG | -0.0208
104 | CGTCGTAG | -0.149
105 | TCCTCGAA | -0.206
106 | ACTAACAT | -0.156
107 | ATCTTGGC | -0.256
108 | CCGTCACC | -0.124
109 | GGAACCAA | 0.0062
110 | ATAGGGCC | -0.235
111 | ATGAGCAA | -0.138
112 | ATAGTCCA | -0.124
113 | AAAGCCCA | -0.155
114 | ATTCACGG | -0.213
115 | GTGGCGGA | 0.103
116 | ATAGGAAT | -0.156
117 | CCTTCTGC | -0.0398
118 | GATGACCA | -0.251
119 | CGGGACGC | -0.0367
120 | ACGGGAAA | -0.136
121 | ATATCTAG | -0.075
122 | ACCTGGTG | 0.322
123 | GACCACCA | -0.171
124 | CGCATTAG | -0.0956
125 | AAGCGTAG | -0.157

Row | Sequence | binding signal [E-score]
126 | GTGACAAC | -0.0524
127 | CTGTACCC | 0.183
128 | GCGAGAGA | -0.114
129 | CCCACGCA | 0.00271
130 | ACCGACAG | 0.104
131 | ACAGTTTG | -0.259
132 | AGGCCGCC | -0.365
133 | CAGGTCCG | -0.113
134 | ACTGGTCG | -0.0496
135 | ACATGTTG | 0.0251
136 | GCGGAGAC | -0.108
137 | GCCCAGCA | -0.135
138 | CCTACAAC | 0.0683
139 | GCGTAGAA | -0.0506
140 | TTAACGAA | -0.101
141 | CTATAGCC | -0.0826
142 | CAAACATC | -0.339
143 | CAGAATCA | -0.0027
144 | ATGATAAT | -0.253
145 | GCCAGAGC | -0.0441
146 | CCGCGATA | 0.0262
147 | CTGAACCA | -0.141
148 | CCGCCCAA | -0.0688
149 | TATTCAGA | -0.0124
150 | GGTCCGAC | 0.0202

Row | Sequence | binding signal [E-score]
151 | GTCACCCA | 0.0838
152 | AAGCCGTC | -0.186
153 | ATTAGAGC | 0.0378
154 | ATGGGCCA | -0.246
155 | TCACACAA | -0.0208
156 | AGACTTAA | -0.153
157 | GACTGTAC | -0.00257
158 | GAACGTTA | -0.262
159 | GTTGTATA | 0.0198
160 | ATACCTCG | 0.147
161 | ACACTAAA | 0.345
162 | ATGGCATC | -0.062
163 | GCCGCGAA | -0.212
164 | GCTCAAGC | -0.123
165 | CACACTAG | 0.25
166 | AACTCTAT | -0.171
167 | CGTATTGC | -0.21
168 | ATTCTGGC | -0.152
169 | AAGTCGCG | -0.0815
170 | GAAAAGAA | -0.128
171 | AGAAATGG | -0.162
172 | CACATACG | -0.125
173 | ACGCGCCG | 0.0317
174 | ACTGATAC | 0.295
175 | CACGTCCC | 0.165

Row | Sequence | binding signal [E-score]
176 | ATGGCCGG | -0.0547
177 | CGTATATC | -0.0244
178 | CTTCGCAC | 0.0189
179 | GCATGCGC | -0.202
180 | ACACCTTA | 0.456
181 | AAGGGGTA | 0.287
182 | GCACGATA | 0.0723
183 | ATCCCGTC | 0.0998
184 | AGAGTCGC | -0.0679
185 | ATAGACCA | -0.166
186 | ACTTAGGA | 0.0182
187 | CAACGCAA | -0.146
188 | CCCTAAAC | -0.0377
189 | CAAGAATG | -0.178
190 | AGCCGAAG | -0.0867
191 | CCCTCCGA | 0.161
192 | ACTAGTTG | -0.0799
193 | CTTTAGAC | -0.0885
194 | AAGTCAGA | -0.137
195 | AATTGTAC | -0.0678
196 | AACATGGA | -0.176
197 | AGAAACTG | -0.0259
198 | AACCCGGT | 0.114
199 | ATCAAGTA | 0.0909
200 | ATTATTCG | -0.114

Row | Sequence | binding signal [E-score]
201 | AATAGGAA | -0.135
202 | AAGCCAGG | -0.0613
203 | TCCTTCAA | -0.15
204 | ACCGATCA | -0.124
205 | GGCTTGGA | -0.00594
206 | GGGGATTA | 0.123
207 | AACCACAC | 0.281
208 | CCAGCTCC | 0.0734
209 | ACCTCATG | 0.136
210 | AGAGTTCA | -0.187
211 | CTTCGAGC | -0.239
212 | CTGCTGTA | -0.113
213 | TACACAGA | 0.152
214 | CGGATTTC | -0.149
215 | CCACAACA | 0.139
216 | AACTAGAA | -0.00851
217 | AGATCTCA | -0.146
218 | GGGCTCAA | -0.0773
219 | ATTCTGAC | -0.0321
